The campaign covered roughly 310,000 compounds. About 14,000 (4.5%) showed an effect of 50% or more. The effect is printed as a negative number. Some of the results follow.
Each molecule was assayed against human ether-à-go-go-related gene (hERG) potassium channel (human, UniProt Q12809) (assay: primary screen, population patch clamp on CHO cells stably expressing hERG).
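Note: peak tail current of the secondary pulse compared with the same well before compound.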

Sequence of human ether-à-go-go-related gene (hERG) potassium channel (Q12809 whole entry, looked up): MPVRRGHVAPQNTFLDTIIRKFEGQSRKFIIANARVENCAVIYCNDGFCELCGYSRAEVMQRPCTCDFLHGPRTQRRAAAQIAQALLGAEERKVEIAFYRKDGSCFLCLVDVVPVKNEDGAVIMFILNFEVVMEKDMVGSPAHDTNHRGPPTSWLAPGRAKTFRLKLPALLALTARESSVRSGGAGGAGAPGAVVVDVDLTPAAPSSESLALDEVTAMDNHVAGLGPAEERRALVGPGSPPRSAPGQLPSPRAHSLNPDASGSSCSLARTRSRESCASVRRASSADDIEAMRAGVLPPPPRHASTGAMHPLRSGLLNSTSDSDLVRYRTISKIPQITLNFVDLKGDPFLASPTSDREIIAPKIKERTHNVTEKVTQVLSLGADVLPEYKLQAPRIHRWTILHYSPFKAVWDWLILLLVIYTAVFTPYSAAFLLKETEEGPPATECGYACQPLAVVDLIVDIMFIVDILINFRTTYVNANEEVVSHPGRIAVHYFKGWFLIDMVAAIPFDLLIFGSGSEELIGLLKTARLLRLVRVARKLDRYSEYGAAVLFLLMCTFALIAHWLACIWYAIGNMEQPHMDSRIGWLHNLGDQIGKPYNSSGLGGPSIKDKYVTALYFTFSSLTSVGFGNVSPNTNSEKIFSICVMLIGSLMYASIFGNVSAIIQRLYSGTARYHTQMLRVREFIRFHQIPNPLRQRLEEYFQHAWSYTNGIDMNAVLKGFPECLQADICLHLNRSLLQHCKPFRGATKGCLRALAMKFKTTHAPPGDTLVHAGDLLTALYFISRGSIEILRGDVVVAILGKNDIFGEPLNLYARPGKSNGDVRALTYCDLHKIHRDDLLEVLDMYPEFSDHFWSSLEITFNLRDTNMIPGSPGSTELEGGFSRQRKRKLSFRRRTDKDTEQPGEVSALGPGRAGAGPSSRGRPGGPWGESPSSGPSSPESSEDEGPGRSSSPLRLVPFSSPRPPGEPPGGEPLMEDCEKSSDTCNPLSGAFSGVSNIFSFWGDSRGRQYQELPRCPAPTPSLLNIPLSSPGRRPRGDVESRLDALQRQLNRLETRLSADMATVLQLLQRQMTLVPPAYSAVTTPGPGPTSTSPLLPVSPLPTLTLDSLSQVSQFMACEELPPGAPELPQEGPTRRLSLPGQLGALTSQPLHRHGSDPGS

SMILES	hERG current change (%, negative = inhibition) at 10uM
CC1CCN(C(=S)c2cn(Cc3ccc(F)cc3)c3ccccc23)CC1	-1.82%
COc1ccc(C(=O)N/N=C/c2ccccc2OC(=O)c2ccccc2)cc1	8.46%
COc1ccc(C(=O)Nc2cc(C(C)=O)c(/C=C/N(C)C)oc2=O)cc1	-1.16%
CCn1c(SCC(=O)NCc2ccc3c(c2)OCO3)nnc1-c1ccncc1	13%
CC(=O)NC(Cc1ccccc1C)C(=O)NC1CCN(c2nnnn2-c2ccccc2)CC1 (stereo not shown)	-3.31%
CC(C)CSc1n[nH]c(N)n1	10.5%
CCOc1ccc2nc(NC(=O)C3=NN(c4ccccc4)C(=O)CC3)sc2c1	-3.33%
CCN(CC)S(=O)(=O)c1cccc(NC(=O)COC(=O)C2CC3C=CC2C3)c1 (stereo not shown)	-19.5%
O=C1c2ccccc2CC1(Cc1ccccc1)Cc1ccccc1	-10%
O=C(CSCc1cccc(Cl)c1)N1CCN(Cc2ccc3c(c2)OCO3)CC1	-44.4%
CCCCCCC(=O)Nc1ccc(C(=O)N/N=C/c2cccnc2)cc1	-21.1%
O=C1NN=COc2ccccc21	14.9%
CC(C)CC(=O)Nc1ccc(C(=O)COC(=O)C2=COCCO2)cc1	-23.5%
Cc1nc(SCC(=O)Nc2ccc(Cl)cc2[N+](=O)[O-])nc(C)c1C	-1.92%
CCOC(=O)C1CCCN(CCC(=O)Nc2ccc3c(c2)CCC3)C1 (stereo not shown)	-50.4%
CCOc1ncccc1-c1nc(-c2cccs2)no1	8.42%
CN1CCN(C(=O)C2=C[C@H](c3ccc4c(c3)OCO4)C[C@H](OCCCCO)O2)CC1	-8.06%
CCCc1ccc2oc(C(=O)N3CCN(C4CCS(=O)(=O)C4)CC3)c(C)c2c1 (stereo not shown)	-51.3%
CC(C)CC(=O)Nc1ccc(S(=O)(=O)N2CC3CC(C2)c2cccc(=O)n2C3)cc1 (stereo not shown)	7.52%
Cc1cccc(Nc2c([N+](=O)[O-])c(=O)n(C)c3ccccc23)c1	-25.7%
CCn1c(CC(=O)Nc2ccc(Cl)c(Cl)c2)nnc1SCc1ccc(C)cc1	27.4%
CC(C(=O)Nc1cccc([N+](=O)[O-])c1)N1C(=O)NC2(CCCC2)C1=O (stereo not shown)	15.7%

SMILES	hERG current change (%, negative = inhibition) at 10uM
COc1ccc(S(=O)(=O)N2CCCCC2)cc1NC(=O)c1ccc(=O)[nH]c1	-12.2%
Cn1c(=O)c2c(nc(Oc3ccc4c(c3)OCO4)n2Cc2ccc(Br)cc2)n(C)c1=O	1.82%
CC(C)c1ccc(/C=N/NC(=O)c2nnn(-c3nonc3N)c2CSC2=NCCS2)cc1	17.9%
O=C(NCc1ccccn1)C1CCC(=O)N(Cc2ccc(Cl)cc2)C1 (stereo not shown)	18.7%
c1cn2cc(CSC3CCCCC3)nc2s1	-2.82%
O=C(CN(c1ccccc1)S(=O)(=O)c1ccccc1[N+](=O)[O-])N1CCCC1	3.51%
CCCCOC(=O)C1=C(C)Nc2ncnn2C1c1ccc(OCC)c(OC)c1 (stereo not shown)	-10.5%
O=C(CSc1nc(C2CCCCC2)n(-c2ccccc2)n1)NCCN1C(=O)CSC1=O	-15.7%
Nc1ccc(S(=O)(=O)NC2=NCCCCC2)cc1	19.3%
O=C(Cc1ccc(S(=O)(=O)N2CCOCC2)s1)NCCOc1ccccc1F	-8.5%
COC(=O)C1=C(c2ccccc2)C[C@@H]2CC[C@H]1N2C(=O)NCc1cccc2ccccc12	-12.2%
CC(C(=O)O)C1SC(=O)NC1=O (stereo not shown)	6.11%
O=C1NCCCCC1NS(=O)(=O)c1cccc(C(F)(F)F)c1 (stereo not shown)	1.19%
O=S1(=O)CCOC[C@H](Cc2ccccc2)N1Cc1cccc(F)c1	-26.7%
Cc1ccccc1NC(=O)c1ccc(F)c(S(=O)(=O)N2CCN(c3ccccn3)CC2)c1	2.08%
COC(=O)CNc1nc(-c2ccncc2)nc2ccccc12	1.71%
CSc1ncccc1C(=O)OCC(=O)NC(=O)NCCC(C)C	0.954%
Cc1ccc(OCCCn2ccnc2)c([N+](=O)[O-])c1	-34.4%
COc1cc(C2CC(=O)c3cnc(NC(=O)c4ccco4)nc3C2)cc(OC)c1OC (stereo not shown)	6.39%
O=C(Nc1cccc2ccccc12)NC1CCCCC1O (stereo not shown)	0.227%
CCc1nc2c(n1O)CCc1nonc1-2	4.58%
C/C(=N/NC(=O)c1ccccc1O)c1ccc(N2C(=O)C3CCCCC3C2=O)cc1 (stereo not shown)	14.7%

SMILES	hERG current change (%, negative = inhibition) at 10uM
CC(=O)N1CCc2cc(S(=O)(=O)NC(C(=O)NC3CCCc4ccccc43)C(C)C)ccc21 (stereo not shown)	10%
CCOc1ccc2nc(SCC3CC3(Cl)Cl)[nH]c2c1 (stereo not shown)	-5.08%
O=C(CC1CC2CCC1C2)NCc1cccs1 (stereo not shown)	2.09%
COc1ccccc1C(=O)COC(=O)c1ccccc1OCC(=O)Nc1ccc(SC(F)F)cc1	12.6%
Cc1ccc(S(=O)(=O)NCC(=O)OCC(=O)c2ccc(Cl)s2)cc1	1.12%
COc1ccc2c(c1OC)C(=O)N1C2SC[C@H]1C(=O)NC1CCCC1 (stereo partly shown)	6.57%
Cc1ccc(SCCNC(=O)c2ccccc2)cc1	-0.806%
Cc1c(C2OC(=O)C3(CCCCC3)C(=O)C2(C)C)c(=O)n(-c2ccccc2)n1C (stereo not shown)	-5.45%
O=C(CCOc1ccccc1)Nc1ccnn1C1CCN(Cc2ccc(CO)o2)CC1	6.52%
Cc1ccc(N2CC(C(=O)N3CCC(C(=O)NC(C)(C)C)CC3)CC2=O)cc1 (stereo not shown)	20.2%
CC(C)Cn1nnc2c(=O)oc3ccccc3c21	-7.26%
CCN(CCO)c1ncnc2onc(-c3ccc(F)cc3)c12	16.9%
COc1ccc(N2C(=S)N=C(Nc3cccc(C)c3)C23CCCCC3)cc1	15.7%
Cc1ccccc1NC(=S)NCc1cccn1C	9.48%
CCOC(=O)c1c(S(=O)(=O)Nc2ccc(F)cc2Cl)c(C)n(C)c1C	8.34%
CC1S/C(=N/N=C2CCCCC2)NC1=O (stereo not shown)	24.4%
COc1ccc(S(=O)(=O)N2CCCN(C)CC2)cc1.Cl	1.55%
CN(CCNC(=O)C1CCN(c2ncnc3c2nc2n3CCCCC2)CC1)Cc1ccccc1	-15.5%
Cc1cnc(NC(=O)Cc2ccccc2F)s1	19.4%
CC1CCCCC12NC(=O)N(CC(=O)OCC(=O)NC(=O)c1ccccc1)C2=O (stereo not shown)	5.39%
CCCCNC(=O)c1ccc2nc(-c3ccco3)c(-c3ccco3)nc2c1	-25.1%
O=C(NNC1=NCCC1)c1cccc(S(=O)(=O)N2CCOCC2)c1	18.5%

SMILES	hERG current change (%, negative = inhibition) at 10uM
O=C(C1CCCCC1)N1CCCC(c2nc3c(nnn3Cc3ccccc3)c(=O)[nH]2)C1 (stereo not shown)	-8.73%
O=C1OCC2=C1C(c1ccccc1)CC(=O)N2c1ccccc1 (stereo not shown)	3.43%
Cc1ccc(S(=O)(=O)N2CCCCC2)cc1NS(=O)(=O)c1cccc(C(=O)O)c1	22%
Nn1c(SCC(=O)NC2CCCC2)nnc1-c1ccccc1F	5.05%
COc1cccc(CSc2nc3sc(C)c(C)c3c(=O)n2Cc2ccco2)c1	9.54%
CCOC(=O)N1CCN(C(=O)c2cc(C)no2)CC1	10.3%
O=C1NC(c2ccccc2)=NC1(NS(=O)(=O)c1ccccc1)C(F)(F)F (stereo not shown)	-3.5%
COCCNC(=O)CSc1nnc(CCCN2C(=O)c3cccc4cccc(c34)C2=O)n1-c1ccccc1	-11%
Clc1cccc(Cl)c1/C=C/c1nc2ccccc2[nH]1	-9.4%
CCN(CC)S(=O)(=O)c1ccc(NC(=O)c2cc(C(=O)OC)cc([N+](=O)[O-])c2)cc1	10.3%
CN(C(=O)Cc1ccc2c(c1)OCO2)C1CCCN(Cc2ccccc2F)C1 (stereo not shown)	-2.2%
Cc1oc(-c2cccc(Cl)c2)nc1CN1CCC(C(=O)NCC2CCCO2)CC1 (stereo not shown)	-57.1%
CC(OC(=O)c1ccc(S(=O)(=O)N2CCCCC2)cc1)C(=O)Nc1ccc(C(N)=O)cc1 (stereo not shown)	17.4%
CC(C)c1nc(SCC(=O)Nc2ccc3c(c2)OCCO3)c2c(=O)n(C)c(=O)n(C)c2n1	21.9%
Fc1ccc(CNC(=S)NCc2cccc(Cl)c2)cc1	-32.8%
Cc1cc(C(=O)Nc2ccc(Cl)cc2)c2ccccc2n1	2.76%
Cc1nn(Cc2ccc(Cl)cc2Cl)c(Cl)c1C(=O)Nc1ccc(OC(F)F)cc1	-5.15%
COc1cc(/C=N/Nc2nc(Nc3ccccc3)nc(N3CCOCC3)n2)ccc1OC(=O)c1ccco1	13.6%
CCOc1cc(N2CCOCC2)c(OCC)cc1NC(=O)c1cc(C)nc2ccccc12	10.6%
CCOC(=O)C1CCCN(Cc2nc(Cc3cccc(F)c3)no2)C1 (stereo not shown)	-6.6%
CC(C)(C)OC(=O)N/N=C\C=C\c1ccc2c(c1)OCO2	7.04%
CCOC(=O)N1CCN(C(=O)c2ccc(N(C)S(C)(=O)=O)cc2)CC1	11.8%
